This is one part of the list.

The labels stand for the following.
B1: ENSG00000248905:stop:overlap|stop_codon|ENSG00000248905|stop_codon|NA|stop_codon (ssRNA)
RNA: GGGAGUUCUACAGUCCGACGAUCAAGACACAGAAGAAAAAGUGGGACUGAAGUACACUGAAGCAGGUAAUGUGAAAGGAAGCUAGGGACCCGGGAAUGAAUCUCUUCCUGCAAUGGCUUUUAGUUCUAGCUUAGUUGACUCUCCAACAGAGGAUUGAGCAUCA
B2: chrX:51895182:51895295:+|CDS|ENSG00000179222|unk|total|mutant (ssRNA)
RNA: GGGAGUUCUACAGUCCGACGAUCAGUUCACAGCCCCCAACUGCCAAUGAGAUGGCUGACAUUCAGGUUUCAGCAGCUGCCGCCCGGCCUAAGUCAGCCUUUAAAGUCCAGAAUGCCACCACAAAAGGCCCAAAUGGUGUCUAUCAACAGAGGAUUGAGCAUCA
B3: chr10:49131153:49131612:-|three_prime_utr|ENSG00000172538|control|control|control (ssRNA)
RNA: GGGAGUUCUACAGUCCGACGAUCCUGCCCUCACCUCCAGGGCCUGGGACUGCUCCUUCCCCAGCCAGCAGUAUCAGAGCCACUAGGGCAGGGAGAGAGGACCAGGGUCAGGGGGAAGGAAAGGCAUGGAGUGUAGAGCAAGGACAACAGAGGAUUGAGCAUCA
B4: chr8:76983344:76983445:-|CDS|ENSG00000164751|msi1|FALSE|unique (ssRNA)
RNA: GGGAGUUCUACAGUCCGACGAUCAGCCACCAGUGGCAAAGAAUGCGCUCUAUGUGGAGAGUGGCCCACCAUGCCUCACACCAUAGGAUGUGAGCAUAUUUUCUGUUAUUUCUGUGCUAAGAGUAGUUUCUUAUUUGACGUGUACAACAGAGGAUUGAGCAUCA
B5: chr2:27376893:27376994:+|3pUTR|ENSG00000115234|msi1|total|mutant (ssRNA)
RNA: GGGAGUUCUACAGUCCGACGAUCGGGCUGGCUGCACAGAGGAUUGCCCCUUCUCUUUUCAGAGCUGGCCCUCGAUGCCAAAUCCGCAUUCCGUAUUUUGCACAAAGUCUAAGGGACCAUGGCUGCCUGCCUUGGGGAGGAACCCAACAGAGGAUUGAGCAUCA
B6: chr10:91841327:91841437:+|CDS|ENSG00000107854|unk|FALSE|unique (ssRNA)
RNA: GGGAGUUCUACAGUCCGACGAUCUUCUUAUGGACAUUAUGAAGUUGCAGAACUUCUUGUUAAACAUGGAGCAGUAGUUAAUGUAGCUGAUUUAUGGAAAUUUACACCUUUACAUGAAGCAGCAGCAAAAGGAAAAUAUGAAAUCAACAGAGGAUUGAGCAUCA
B7: chr21:44497892:44499936:-|three_prime_utr|ENSG00000175894|control|control|control (ssRNA)
RNA: GGGAGUUCUACAGUCCGACGAUCGUGGGGCGGGACCCCAGCACCUCCCCCAACUGACCCUGGACGUCCAGGUGGGCCCAGCCUAGGGCAUCCCGGGCCUGGGCAUCAGGCAGGGUGCAGGUGGGGCCAUCUGCGGCCCUGGUUCAACAGAGGAUUGAGCAUCA
B8: chr4:87458373:87458474:+|3pUTR|ENSG00000170502|unk|FALSE|unique (ssRNA)
RNA: GGGAGUUCUACAGUCCGACGAUCUCCCUCCCGCUCCCCAUCUUCUGAGGCCUGAAGGAUGUUCCUGCCACAUCAAACUCCUUUAGGCAGAGUACCGCCACUGGAUGUAUAGUUUAAUGUUUCAUCUGAUUUUUCUUUAAAUUACAACAGAGGAUUGAGCAUCA
B9: chr9:122240152:122240253:-|3pUTR|ENSG00000119446|msi1|FALSE|unique (ssRNA)
RNA: GGGAGUUCUACAGUCCGACGAUCCUUCUUGGAGUAUAGAAUUCACCAUUUUAUCCGUAAGUCUUCAAAGGAUUAUGGUGGACUAGAACUUACAUAGUGCAAAAUAGUCUUCUAUUUUUAAUAGGAACUUAGAAAAAACUUAGACAACAGAGGAUUGAGCAUCA
B10: chr9:37441208:37441377:-|CDS|ENSG00000168795|unk|FALSE|unique (ssRNA)
RNA: GGGAGUUCUACAGUCCGACGAUCAGGGUAGGUGAUAUCCAUAUUUUGGAAGUCACAAAUAACCUAGAGCAUAAGUCCACUUUUAGUAUUUCGAAUUUUCUUAACAAGAGCAGAGGAAAUAACUUUACUGCAAAUCAGAACAAUCAACAGAGGAUUGAGCAUCA
B11: ENSG00000198589:be:win_7101|CDS|ENSG00000198589|bound_else_gene|NA|bound_elsewhere_windowed (ssRNA)
RNA: GGGAGUUCUACAGUCCGACGAUCUCUUGGAGUGAUGGAUGAUGGGACAGUAGUGUCUGAUGUCGAACUUCCUCCUUGGGCCAAAACCUCAGAAGAAUUUGUUCACAUAAACAGAUUGGCCCUGGAGAGUGAAUUUGUUUCCUGCAACAGAGGAUUGAGCAUCA
B12: chr11:48137134:48137235:+|CDS|ENSG00000149177|msi1|total|mutant (ssRNA)
RNA: GGGAGUUCUACAGUCCGACGAUCCACGUACUCCUACUGCCUUCUUAUUGAGAAGGCUGGAAAUUCCAGCAACGCAACACAAGCCGUCACGGACAUUGGAAUUACUGACGCUACAGUCACUGAAUUAAUACCUGGCUCAUCAUACAACAGAGGAUUGAGCAUCA
B13: chr17:37686430:37687371:-|three_prime_utr|ENSG00000275410|control|control|control (ssRNA)
RNA: GGGAGUUCUACAGUCCGACGAUCUGCAAUUUCCCCUCUGUGUCCUCUCCCCUCUGCCCUGUAUAUAAUACUAAAGUGUCUAUUAGUUUUCUUUGUAAAGGUCAGAGUCAAAAUUUCAAAAGUGAUCUGUCCCCUCUCCCCUCACAACAGAGGAUUGAGCAUCA
B14: chr18:49591392:49591493:+|3pUTR|ENSG00000101670|msi1|total|mutant (ssRNA)
RNA: GGGAGUUCUACAGUCCGACGAUCCCUUCUCCGUUAUUAUGUGCCACCUCCCCUAUGAGUGACGUGUUUGAUCACCCGCAGAACCGCAAGCAGAGUAUCAUUCAUGCUGGGGCCAGAAUGAUGGCCGGUUGCCAGAUAUAACUGCAACAGAGGAUUGAGCAUCA
B15: chr7:6162096:6162197:-|3pUTR|ENSG00000008256|msi1|total|mutant (ssRNA)
RNA: GGGAGUUCUACAGUCCGACGAUCGUCACAGAACAUUUUGGGGCAGUUUAAUGUGGUACCAAACUGAAAACCGGAGCUAUUUACCGAUGGAGCAGCACUCCGUGCUUCACCGAAAGCAAUGCCUAUUUUUAAAGUUACAAACGCCAACAGAGGAUUGAGCAUCA
B16: chr4:86814747:86814848:+|3pUTR|ENSG00000163629|unk|total|mutant (ssRNA)
RNA: GGGAGUUCUACAGUCCGACGAUCUACUUUAACCUAUGAUAAUUAUUUACAAAAUUUUAACACUAACCAAACAAUGCAGAUCUCCGGGAUGAUUAAAGGCAGCAUUUGAUGACCGCAGACAUUGUUACAAGGACAUGGUGAGUCCAACAGAGGAUUGAGCAUCA
B17: ENSG00000119777:stop:overlap|stop_codon|ENSG00000119777|stop_codon|NA|stop_codon (ssRNA)
RNA: GGGAGUUCUACAGUCCGACGAUCGCCUACAGGACAUUACAGUGGCUUUCUUGGACUGGGCACUUGCCCUGAUAUCCCAGCAGUAGGCCCUGCCUUCCUGGCCACUGAUUUCUGCAUGGGUAGACCAUCCAAGACUGCAGCGGGCAACAGAGGAUUGAGCAUCA
B18: chr8:19954154:19954263:+|CDS|ENSG00000175445|unk|FALSE|unique (ssRNA)
RNA: GGGAGUUCUACAGUCCGACGAUCACCUAACUUUGAGUAUGCAGAAGCCCCGAGUCGUCUUUCUCCUGAUGAUGCAGAUUUUGUAGACGUCUUACACACAUUCACCAGAGGGUCCCCUGGUCGAAGCAUUGGAAUCCAGAAACCCAACAGAGGAUUGAGCAUCA
B19: chr5:76617584:76618642:-|CDS|ENSG00000164220|control|control|control (ssRNA)
RNA: GGGAGUUCUACAGUCCGACGAUCUGAUGGCUUAUAUUUUAUAUAUCUCAUAGCUUUGUGCCUGGGUAGUCUUAAUAGUUGCUUAGAUCCAUUCCUUUAUUUUCUCAUGUCAAAAACCAGAAAUCACUCCACUGCUUACCUUACCAACAGAGGAUUGAGCAUCA
B20: chr20:57607060:57607300:-|CDS|ENSG00000124256|control|control|control (ssRNA)
RNA: GGGAGUUCUACAGUCCGACGAUCCCUGUGAAUGUUGAUAGUUUGACCUCCUCCCAUGAAUCACAAAUGUUCUUAACGGCAUGUAGAUUGGUGAUCUUUUCCAGAAGAUUUUCAACUUACUUUGCCCAGAUCCAUCUGAGGAAUCAACAGAGGAUUGAGCAUCA
B21: chr2:111862450:111862553:-|CDS|ENSG00000153107|unk|FALSE|unique (ssRNA)
RNA: GGGAGUUCUACAGUCCGACGAUCUCUUUUUCAGGGGUGCAAAGGUUCAACAUUUCAAGCCAUAAUCAGUCUCCAAAGAGACAUAGUAUUUCUCAUUCUCCAAAUAGUAAUUCUAAUGGCUCCUUUCUUGCACCAGAAACGGAGCAACAGAGGAUUGAGCAUCA
B22: chr9:115020670:115020933:-|3pUTR|ENSG00000041982|msi1|total|mutant (ssRNA)
RNA: GGGAGUUCUACAGUCCGACGAUCCUUCUCUCCGGUGGCUCUGGGAAUGGGAGAGGGGCCGGAUGUACAGGGGCCGUUUGUUUCCGAACCAGCCGUAUUUUACAUGAAGCUGUAUAAUUAAUUGUCAUUAUUUUUGUCCGCAAACAACAGAGGAUUGAGCAUCA

The target of this experiment is MSI1 full-length (mouse, UniProt Q61474 1-362). Kind of experiment: nsRBNS (natural sequence RNA bind-n-seq); RBNS binding buffer (assumed for nsRBNS): 25 mM Tris pH 7.5, 150 mM KCl, 3 mM MgCl2, 0.01% Triton X-100, 500 ug/ml BSA, 20 U/ml SUPERase-In, 4 C; UNK is unkempt and MSI1 is Musashi-1; names of the RNAs are library labels; protein concentration not given here; high values mean tight binding.
UniProt Q61474, sequence (Q61474 whole entry): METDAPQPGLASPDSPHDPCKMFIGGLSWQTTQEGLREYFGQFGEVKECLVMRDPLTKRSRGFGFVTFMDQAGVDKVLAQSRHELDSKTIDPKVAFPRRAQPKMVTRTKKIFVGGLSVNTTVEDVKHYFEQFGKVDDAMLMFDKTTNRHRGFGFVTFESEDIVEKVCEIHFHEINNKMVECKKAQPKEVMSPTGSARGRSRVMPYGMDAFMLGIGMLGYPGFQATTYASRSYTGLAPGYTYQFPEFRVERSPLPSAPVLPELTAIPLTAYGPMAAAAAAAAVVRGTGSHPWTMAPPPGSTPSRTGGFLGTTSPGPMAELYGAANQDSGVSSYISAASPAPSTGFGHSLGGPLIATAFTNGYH
In turn, B1 displayed a binding signal of 0.365 enrichment R.
As to B2, the binding signal stood at 0.527 enrichment R.
B3 showed a binding signal of 1.65 enrichment R.
In turn, B4 came in with a binding signal of 0.859 enrichment R.
Next, B5: 0.375 enrichment R; B6: 2.34 enrichment R.
With B7, the binding signal was found to be 0.368 enrichment R.
In turn, B8 had a binding signal of 2.89 enrichment R.
The value for B9 was 20.5 enrichment R.
B10 displayed a binding signal of 1.13 enrichment R.
For the molecule B11, the binding signal turned out to be 0.387 enrichment R.
The value for B12 was 0.383 enrichment R; that for B13 was 0.979 enrichment R; that for B14 was 0.488 enrichment R.
For B15, the binding signal amounted to 0.623 enrichment R.
Next, B16: 5.19 enrichment R; B17: 0.348 enrichment R; B18: 0.775 enrichment R.
Turning to B19, the binding signal is 15 enrichment R.
For the molecule B20, the binding signal is 0.236 enrichment R.
Molecule B21 returned a binding signal of 0.368 enrichment R.
In turn, B22 registered a binding signal of 0.768 enrichment R.
